These results are taken from a collection of fitness landscapes (doi:10.1016/j.celrep.2020.107928).

Over roughly 81,000 sequences, “one-hybrid fitness for binding NBS DNA” has its median near -0.1; the highest 2% begin near 0.36. The list shows a part of the results. A value given as a limit tells only on which side of the number the result lay.

First the molecules themselves.
B1: Caulobacter ParB omega fusion; a variant is named by its letters at X, in order, B8GW30 (parent)
chain: MESVVVGEPGMSEGRRGLGRGLSALLGEVDAAPAQAPGEQLGGSREAPIEILQRNPDQPRRTFREEDLEDLSNSIREKGVLQPILVRPSPDTAGEYQIVAGERAWRAAQRAGLKTVPIMVRELDDLAVLEIGIIENVQRADLNVLEEALSYKVLMEKFERTQENIAQTIGKSXSHVANXMRLLXLPDEVQSYLVSGELTAXHARAIAAAADPVALAKQIIEGGLSVRETEALARKAPNLSAGKSKGGRPPRVKDTDTQALESDLSSVLGLDVSIDHRGSTGTLTITYATLEQLDDLCNRLTRGI

This experiment covers variants of B1. The experiment can be described thus: one-hybrid fitness for binding NBS DNA (the Noc-binding site; scaled: cognate 1, non-cognate 0); higher = stronger binding. To be noted: with NBS DNA site. The procedure, abridged: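 On M9-minus-histidine containing 0.1 mM IPTG and 5 mM 3-AT, E. coli USO cells with a HIS3 reporter, site 19 bp from the promoter, grew 48 hours at 37°C to select Caulobacter ParB libraries randomised at four specificity codons. Plasmids from before and after were Illumina-sequenced, with three replicate libraries pooled and variants under 10 reads left out. Fitness is the log change in variant-to-wild-type read ratio, rescaled against cognate and non-cognate.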
As for SFHY, the “one-hybrid fitness for binding NBS DNA” value was ≤ 0.2.
Consider VDPL, for which the “one-hybrid fitness for binding NBS DNA” value is ≤ 0.2.
For the variant NLNV, the “one-hybrid fitness for binding NBS DNA” value is ≤ 0.2.
Under TQGV stands ≤ 0.2; under GKDR, ≤ 0.2; under YGSN, ≤ 0.2.
Then YSLD, with ≤ 0.2.
Under SRIG stands ≤ 0.2.
For the variant SGEL, the “one-hybrid fitness for binding NBS DNA” value was ≤ 0.2.
Under ARCI stands ≤ 0.2; under PAPR, ≤ 0.2.
Then VAFG, with ≤ 0.2; and WYNA, with ≤ 0.2.
Then VDNR, with ≤ 0.2; and WDAR, with ≤ 0.2; and LYTE, with ≤ 0.2.
Take AAMD: the “one-hybrid fitness for binding NBS DNA” value was ≤ 0.2.
Then AAWQ, with ≤ 0.2; and AGTC, with ≤ 0.2.
Under QPRT stands ≤ 0.2; under DYLY, ≤ 0.2.
Turning to TPER, the “one-hybrid fitness for binding NBS DNA” value was ≤ 0.2.
Under HRKS stands ≤ 0.2; under DKIS, ≤ 0.2.
Then GAVC, with ≤ 0.2; and TVMM, with ≤ 0.2.
Regarding WGYS, the “one-hybrid fitness for binding NBS DNA” value is ≤ 0.2.
EVNA: the “one-hybrid fitness for binding NBS DNA” value is ≤ 0.2.
Take LTNT: the “one-hybrid fitness for binding NBS DNA” value is ≤ 0.2.
Then TSVR, with ≤ 0.2; and YYQG, with ≤ 0.2.
Consider TFQG, for which the “one-hybrid fitness for binding NBS DNA” value is ≤ 0.2.
Under CYSC stands ≤ 0.2; under WKNS, ≤ 0.2.
Then YGRV, with ≤ 0.2; and QTGI, with ≤ 0.2.
Then PFCG, with ≤ 0.2; and DTAW, with ≤ 0.2.
In the case of DAMN, the “one-hybrid fitness for binding NBS DNA” value was ≤ 0.2.
Under AFHG stands ≤ 0.2; under GTRR, 0.251; under QMYM, ≤ 0.2.
Then QPDN, with ≤ 0.2.
TNPT: the “one-hybrid fitness for binding NBS DNA” value is ≤ 0.2.
Then QGMR, with ≤ 0.2.
Under QLHV stands ≤ 0.2; under CVAL, ≤ 0.2; under QSCM, ≤ 0.2.
Then RWKT, with 0.272; and VKTP, with ≤ 0.2.
On to KLEG, for which the “one-hybrid fitness for binding NBS DNA” value was ≤ 0.2.
Then RRMQ, with 0.253; and FTGL, with ≤ 0.2.
Take RIDM: the “one-hybrid fitness for binding NBS DNA” value is ≤ 0.2.
Then DVTQ, with ≤ 0.2.
For the variant DNGS, the “one-hybrid fitness for binding NBS DNA” value was ≤ 0.2.
Under VVMM stands ≤ 0.2; under PPKF, ≤ 0.2.
In the case of PVGN, the “one-hybrid fitness for binding NBS DNA” value is ≤ 0.2.
Under PNHA stands ≤ 0.2.
Then QVWE, with ≤ 0.2.
Under RTTQ stands ≤ 0.2; under QQGP, ≤ 0.2.
For the variant WLYI, the “one-hybrid fitness for binding NBS DNA” value was ≤ 0.2.
Under VNQC stands ≤ 0.2.
Then TAAV, with ≤ 0.2; and KPYC, with ≤ 0.2.
Under EYRS stands ≤ 0.2.
Regarding WPEN, the “one-hybrid fitness for binding NBS DNA” value was ≤ 0.2.
Under EAWS stands ≤ 0.2.
Under QPLI stands ≤ 0.2; under MLSV, ≤ 0.2; under LYTH, ≤ 0.2.
Regarding MALR, the “one-hybrid fitness for binding NBS DNA” value is ≤ 0.2.
For the variant IINF, the “one-hybrid fitness for binding NBS DNA” value is ≤ 0.2.
Under IRKN stands ≤ 0.2.
As for LFTK, the “one-hybrid fitness for binding NBS DNA” value is ≤ 0.2.
As to GAMF, the “one-hybrid fitness for binding NBS DNA” value is ≤ 0.2.
Then RNYN, with ≤ 0.2.
Then RNVN, with ≤ 0.2; and HRTM, with ≤ 0.2.
Then LPVK, with ≤ 0.2; and HTYF, with ≤ 0.2; and DRMF, with ≤ 0.2.
As for QMPQ, the “one-hybrid fitness for binding NBS DNA” value is ≤ 0.2.
As to PYSC, the “one-hybrid fitness for binding NBS DNA” value was ≤ 0.2.
Then PTPF, with ≤ 0.2; and YHFC, with ≤ 0.2; and TDYR, with ≤ 0.2.
Then ILGT, with ≤ 0.2; and GGQR, with ≤ 0.2; and WVLC, with ≤ 0.2.
Under VERR stands ≤ 0.2; under QHPG, ≤ 0.2; under PTTR, ≤ 0.2.
KALT: the “one-hybrid fitness for binding NBS DNA” value was ≤ 0.2.
Then NWSN, with ≤ 0.2; and TRCC, with ≤ 0.2; and GDRT, with ≤ 0.2.
Then RTAP, with ≤ 0.2; and TDQL, with ≤ 0.2; and TTHF, with ≤ 0.2.
Then QKDI, with ≤ 0.2; and IKMC, with ≤ 0.2.
LDFI: the “one-hybrid fitness for binding NBS DNA” value is ≤ 0.2.
Regarding VTMY, the “one-hybrid fitness for binding NBS DNA” value is ≤ 0.2.
On to FTHG, for which the “one-hybrid fitness for binding NBS DNA” value was ≤ 0.2.
Take TLNA: the “one-hybrid fitness for binding NBS DNA” value is ≤ 0.2.
Then YNNG, with ≤ 0.2.
Under DTNP stands ≤ 0.2; under KAIC, ≤ 0.2; under LMNV, ≤ 0.2.
Then NGCS, with ≤ 0.2; and NHKG, with ≤ 0.2; and NWHQ, with ≤ 0.2.
On to HSYL, for which the “one-hybrid fitness for binding NBS DNA” value is ≤ 0.2.
Regarding WSSR, the “one-hybrid fitness for binding NBS DNA” value is ≤ 0.2.
As to IVMF, the “one-hybrid fitness for binding NBS DNA” value was ≤ 0.2.
On to PDHK, for which the “one-hybrid fitness for binding NBS DNA” value was ≤ 0.2.
Under LTCS stands ≤ 0.2; under KREF, ≤ 0.2; under CPPA, ≤ 0.2.
Under DSAV stands ≤ 0.2.
Under RPGN stands ≤ 0.2.
CTDV: the “one-hybrid fitness for binding NBS DNA” value was ≤ 0.2.
Under LKDV stands ≤ 0.2.
Take DTMC: the “one-hybrid fitness for binding NBS DNA” value is ≤ 0.2.
Then HACN, with ≤ 0.2; and FETN, with ≤ 0.2; and ANFG, with ≤ 0.2.
Then AHHK, with ≤ 0.2.
Under VMAE stands ≤ 0.2; under RLAV, ≤ 0.2.
Regarding ASAY, the “one-hybrid fitness for binding NBS DNA” value was ≤ 0.2.
Then YLQF, with ≤ 0.2; and LSAS, with ≤ 0.2.
With VYRN, the “one-hybrid fitness for binding NBS DNA” value is ≤ 0.2.
Under PSES stands ≤ 0.2; under TNTH, ≤ 0.2; under TKLW, ≤ 0.2.
As to HAQF, the “one-hybrid fitness for binding NBS DNA” value was ≤ 0.2.
Then MKHG, with ≤ 0.2; and WGTV, with ≤ 0.2; and TALF, with ≤ 0.2.
Then PTQF, with ≤ 0.2.
Under RMEI stands ≤ 0.2.
Turning to ATWG, the “one-hybrid fitness for binding NBS DNA” value is ≤ 0.2.
Then MNAS, with ≤ 0.2; and FWSC, with ≤ 0.2; and MKIR, with ≤ 0.2.
Then TEKL, with ≤ 0.2; and LQRG, with ≤ 0.2; and QPAW, with ≤ 0.2.
